This note sets out measurements from US20210186947A1, “TOMM6-INTERACTING EXTRACTS AND COMPOUNDS FOR USE IN THE TREATMENT AND PROPHYLAXIS OF NERVOUS SYSTEM DISEASES, ATHEROSCLEROSIS, HEPATITIS B INFECTION AND HUMAN PAPILLOMA VIRUS (HPV) INFECTION” (ETH ZURICH, priority 2018, published 2021).

The conditions of the data set: mouse, in vivo, po, 100 mg/kg/day.

Regarding `Cc1cc(O)c2c(c1)C(=O)c1cc(O)cc(O)c1C2=O` [emodin, 6-methyl-1,3,8 trihydroxyanthrachinone, reference compound], the “daily food intake / food consumption” value is listed as “lower compared to untreated B6 control mice”.
